The record followed here is the supplement of paper PMC10723795.

This assay has as its system RPE1. The experiment in a line: nucleolar normality score relative to DMSO (fraction of DMSO control); RPE1 is a non-cancer human cell line; higher = more normal nucleoli (less nucleolar stress). The conditions noted are these: 24 h.

Structures can show the parent of a compound that is named as a salt. Some of the results follow.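 Rule for the calls: active = more than 2 SD below the DMSO mean: under 0.85 at 10 µM or 0.885 at 1 µM; inactive = the rest.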 Repeats are few or missing, and single values can be far off.
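Note: fixed cells immunolabelled for nucleolin and UBF, 40 image fields per well in 384-well plates, per-cell score = nucleolin nucleolar/nucleoplasm intensity ratio divided by the matching UBF ratio.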

For `CCCNC(=O)Nc1ccc(Oc2ncnc3cc(OC)c(OC)cc23)cc1Cl`, the nucleolar normality score is, setting by setting: (1 µM) inactive: 1; (10 µM) inactive: 1.06.
The like results for `COc1cc(O)cc2c1C(=O)C[C@@H](c1ccccc1)O2` [Alpinetin] were, in that order, inactive: 1.01 and inactive: 0.887.
The like results for `COC1=CC(=O)c2ccccc2C1=O` [2-Methoxy-1,4-naphthoquinone] were, in that order, inactive: 0.935 and active: 0.789.
Taken in the same sequence, the figures for `C[C@@H](O[C@H]1OCCN(Cc2n[nH]c(=O)[nH]2)[C@H]1c1ccc(F)cc1)c1cc(C(F)(F)F)cc(C(F)(F)F)c1` [Aprepitant] were inactive: 1.01 and inactive: 1.04.
Consider `NC(=O)c1ccc(-c2nc(-c3ccccn3)c(-c3ccc4c(c3)OCO4)[nH]2)cc1`, for which the nucleolar normality score (1 µM) was inactive: 0.977 and the nucleolar normality score (10 µM) is inactive: 1.05.
On to `Cc1cn(-c2cc(NC(=O)c3ccc(C)c(Nc4nccc(-c5cccnc5)n4)c3)cc(C(F)(F)F)c2)cn1` [Nilotinib hydrochloride], for which the nucleolar normality score was inactive: 1.03 (1 µM) and inactive: 0.997 (10 µM).
The like results for `Cc1cn(-c2cc(NC(=O)c3ccc(C)c(Nc4nccc(-c5cccnc5)n4)c3)cc(C(F)(F)F)c2)cn1` [Nilotinib (AMN-107)] were, in that order, inactive: 0.974 and inactive: 1.03.
Taken in the same sequence, the figures for `CNC(=O)c1cc(Oc2ccc3nc(N[C@@H]4CCCC[C@H]4O)sc3c2)ccn1` were inactive: 1.09 and inactive: 1.05.
As to `COc1ccc(-c2nc(-c3cc(C(F)(F)F)cc(C(F)(F)F)c3)n(Cc3ccc(C(N)=O)cc3)c2-c2ccc(OC)cc2)cc1` [Apoptozole], the nucleolar normality score was inactive: 1.02 (1 µM) and inactive: 1.04 (10 µM).
Consider `CC(=O)c1c(C)c2cnc(Nc3ccc(N4CCNCC4)cn3)nc2n(C2CCCC2)c1=O`, for which the nucleolar normality score by setting is: (1 µM) inactive: 0.903; (10 µM) inactive: 1.14.
The like results for `C[C@H]1[C@H](C)CC[C@]2(C(=O)O[C@@H]3O[C@H](CO[C@@H]4O[C@H](CO)[C@@H](O[C@@H]5O[C@H](C)[C@H](O)[C@@H](O)[C@H]5O)[C@H](O)[C@H]4O)[C@@H](O)[C@H](O)[C@H]3O)CC[C@]3(C)C(=CC[C@@H]4[C@@]5(C)C[C@@H](O)[C@H](O)[C@@](C)(CO)[C@@H]5CC[C@]43C)[C@H]12` [Asiaticoside] were, in that order, inactive: 1.09 and inactive: 0.919.
Turning to `NC(C=O)C(O)C(O)C(O)CO` (stereo not drawn) [Glucosamine sulfate], the nucleolar normality score (1 µM) is inactive: 1.05 and the nucleolar normality score (10 µM) was inactive: 1.09.
Turning to `Cn1cc(/C=C2\C(=O)Nc3cccnc32)c2ccccc21`, the nucleolar normality score was inactive: 1.06 (1 µM) and inactive: 1.08 (10 µM).
Consider `CNC(=O)c1ccc(Nc2ncc(C(F)(F)F)c(NCc3nccnc3N(C)S(C)(=O)=O)n2)cc1`, for which the nucleolar normality score is, setting by setting: (1 µM) inactive: 1.08; (10 µM) active: 0.233.
